From PubChem BioAssay AID588342 (National Center for Advancing Translational Sciences (NCATS), 2011)
About 25,000 (6.9%) of roughly 360,000 compounds were called active. This list was built around the results that the source calls inconclusive (neither active nor inactive); the mix of calls is not that of the screen. Calls follow the shape of the dose curve; as a rule, active = well fitted inhibition curve with a large enough effect; inconclusive = small, poorly fitted or top-dose-only effect; inactive = flat fitted curve, though single readings scatter. A potency beside an inconclusive call is a rough fit, not a confirmed value.

Biological target: Luciferin 4-monooxygenase (Photinus pyralis) (UniProt P08659)
Test: qHTS profiling assay for firefly luciferase inhibitor/activator using purifed enzyme and Km concentrations of substrates (counterscreen for miR-21 project); also: nearly all actives have a fitted effect of over 55% in size
Conditions: purified FLuc, luminescence inhibition; series mostly up to 57.5 µM
Method in brief: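 Purified P. pyralis luciferase (10nM final) with 10uM D-luciferin and 10uM ATP (Km levels) in 50mM Tris acetate pH 7.5, 10mM Mg acetate, 0.01% Tween-20, 0.05% BSA; qHTS 6-point titration, ~60 µM downward; luminescence read.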
Potency is read from the fitted curve at half-maximal effect; tags tell the direction and shape of the fitted curve.

Sequence of UniProt P08659 (P08659 whole entry, looked up): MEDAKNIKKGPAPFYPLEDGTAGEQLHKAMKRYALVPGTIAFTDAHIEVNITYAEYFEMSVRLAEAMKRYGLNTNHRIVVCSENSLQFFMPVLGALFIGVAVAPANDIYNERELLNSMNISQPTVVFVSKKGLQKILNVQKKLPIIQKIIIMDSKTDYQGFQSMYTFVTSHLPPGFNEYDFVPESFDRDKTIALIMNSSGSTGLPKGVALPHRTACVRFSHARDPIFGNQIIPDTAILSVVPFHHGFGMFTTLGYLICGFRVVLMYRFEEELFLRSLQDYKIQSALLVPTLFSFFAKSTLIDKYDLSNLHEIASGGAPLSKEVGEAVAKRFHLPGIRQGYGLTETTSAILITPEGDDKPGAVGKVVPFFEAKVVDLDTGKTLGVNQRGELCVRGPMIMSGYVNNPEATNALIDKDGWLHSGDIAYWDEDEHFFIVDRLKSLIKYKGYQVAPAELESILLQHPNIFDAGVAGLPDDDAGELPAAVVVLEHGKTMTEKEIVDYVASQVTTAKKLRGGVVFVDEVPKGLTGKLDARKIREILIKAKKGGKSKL

SMILES	Potency
CC1(C(=O)OCC(=O)c2c[nH]c3ccccc23)CC1(Cl)Cl (configuration not stated)	active: 6.75 µM
O=C(NCCOC(=O)C1COc2ccccc2O1)c1cccnc1 (configuration not stated)	inactive
Cc1cc(C)n(C(=O)/C=C/c2cccs2)n1	active: 16.9 µM
O=C(O)c1ccc(CSc2nnc(COc3ccccc3)o2)cc1	inconclusive: 37.9 µM [inhibitor, partial curve, poor fit]
C=CCn1c(SCC(=O)Nc2ccc(N(C)C)cc2)nnc1-c1cccc(C)c1	inconclusive: 19 µM [inhibitor, partial curve]
O=c1c(O)c(-c2cccs2)oc2ccc(Cl)cc12	inconclusive: 37.9 µM [inhibitor, partial curve, poor fit]
C=CCN1C(=O)C2(NNc3ccccc3O2)c2ccccc21 (configuration not stated)	inconclusive: 26.9 µM [inhibitor, partial curve, poor fit]
CCC1(C)Cc2c(sc3nc(SC)n(Cc4ccccc4)c(=O)c23)CO1 (configuration not stated)	inconclusive: 10.7 µM [inhibitor, partial curve]
O=C(Nc1nc(-c2cc(Cl)sc2Cl)cs1)c1ccccc1	inconclusive: 15.1 µM [inhibitor, partial curve]
COc1cccc(NC(=O)COC(=O)c2c3c(nc4ccccc24)CCC(C)C3)c1 (configuration not stated)	inconclusive: 19 µM [inhibitor, partial curve]
O=C(NCCc1c[nH]c2ccccc12)c1ccc2nc[nH]c2c1	inconclusive: 21.3 µM [inhibitor, partial curve, poor fit]
COc1cccc(N2CCN(C(=O)C3CCCN(S(=O)(=O)c4ccc(Br)s4)C3)CC2)c1 (configuration not stated)	inactive
CCc1ccc(N2CC(C(=O)OCC(=O)Nc3ccc(C(C)=O)cc3)CC2=O)cc1 (configuration not stated)	inconclusive: 21.3 µM [inhibitor, partial curve, poor fit]
N#C/C(=C\c1cccs1)C(=O)c1ccccc1	active: 15.1 µM
Cc1ccc(C(=O)Nc2ncccc2S(=O)(=O)c2ccccc2)cc1	active: 10.7 µM
CCCCc1ccc(NC(=O)CC(C)C)cc1	active: 19 µM
CC(=O)N1CCN(C(=O)c2cc(-c3ccc(Cl)s3)nc3ccccc23)CC1	inconclusive: 5.36 µM [inhibitor, single point]
CSc1nsc(/C=C/Nc2ccc(Cl)cc2)c1C#N	inconclusive: 2.69 µM [inhibitor, full curve]
CC(=O)Nc1cccc(C(=O)N/N=C/c2ccc(C)o2)c1	inactive
NS(=O)(=O)c1cc(C(=O)OCC(=O)Nc2ccc3[nH]c(=O)[nH]c3c2)ccc1Cl	inactive
O=c1c2ccccc2nnn1Cc1cccc2ccccc12	inconclusive: 37.9 µM [inhibitor, partial curve, poor fit]
CCOc1ccc(/C=N/NC(=S)NC2CC3C=CC2C3)cc1 (configuration not stated)	inconclusive: 21.3 µM [inhibitor, partial curve, poor fit]
CCNS(=O)(=O)c1ccc(NC(=O)Nc2cc(C)ccc2OC)cc1	inconclusive: 33.8 µM [inhibitor, single point]
Cc1cccc(Nc2nc(-c3ccccc3)c(C(=O)Nc3cccnc3)s2)c1	active: 16.9 µM

SMILES	Potency
CCCCOC(=O)c1ccc(NS(=O)(=O)c2c(C)nc3scc(C)n3c2=O)cc1	inconclusive: 10.7 µM [inhibitor, partial curve, poor fit]
COc1ccc(C(=O)Nc2ccc3ccccc3c2)cc1OC	active: 9.53 µM
COc1ccccc1Nc1cc(C)nc2nc(-c3ccccc3)nn12	inconclusive: 23.9 µM [inhibitor, partial curve]
CCOC(=O)c1cn(CC)c2c(ccc3ccccc32)c1=O	active: 23.9 µM
CCS(=O)(=O)Nc1ccc(-c2ccc(NS(=O)(=O)CC)c(OC)c2)cc1OC	inactive
Cc1ccc(NC(=O)c2ccc(NC(=O)N3CCSc4ncccc43)cc2)cc1Cl	inconclusive: 26.9 µM [inhibitor, partial curve, poor fit]
O=C(Nc1ccc(C(=O)O)cc1)Nc1ccc(F)cc1F	inconclusive: 37.9 µM [inhibitor, partial curve, poor fit]
COc1ccccc1CC(=O)N1CCC(n2nccc2NC(=O)C2CCOC2)CC1 (configuration not stated)	inactive
Cc1cc(C(=O)NNC(=O)c2ccc(Cl)cc2)no1	inactive
COc1ccc(-c2nc3c(n2O)CCC/C3=N\O)cc1	inconclusive: 19 µM [inhibitor, single point]
CC(C)(C)c1ccc(C(=O)Nc2ccc(CN3CCS(=O)(=O)CC3)cc2)cc1	active: 9.53 µM
Cc1cc(=O)oc2cc(OC(=O)c3ccco3)ccc12	active: 16.9 µM
COc1ccc(Cl)cc1NC(=O)N1CCC(CN2CCc3ccccc3C2)CC1	inactive
COc1cccc(CNC(=O)CSc2ccc(-c3sc(-c4ccccc4)nc3C)nn2)c1	inconclusive: 9.53 µM [inhibitor, partial curve, poor fit]
COc1ccc(NC(=O)C2CCN(c3ncnc4c3nc3n4CCCCC3)CC2)c(OC)c1	inactive
N#Cc1c(NC(=O)c2ccncc2)sc2c1CCC2	active: 13.5 µM
O=c1c2cc3c(cc2nc2sc(Nc4ccc(F)cc4F)nn12)OCO3	inconclusive: 7.57 µM [inhibitor, partial curve, poor fit]
O=C(Nc1cccc(Cl)c1)Nc1ccccc1C(=O)O	active: 0.849 µM
CC1CCC(NC(=O)Cn2cc3c(n2)CCCC3)CC1 (configuration not stated)	inconclusive: 15.1 µM [inhibitor, partial curve]
COc1ccc(-n2c(SCC(=O)Nc3cc(C(=O)O)ccc3C)nc3ccccc3c2=O)cc1Cl	inactive
CCOC(=O)C(=CNc1cc(C)ccc1[N+](=O)[O-])C(=O)OCC	inconclusive: 12 µM [inhibitor, partial curve]
CCNc1nc(-c2ccc(OC(F)F)cc2)c(C)s1	inconclusive: 26.9 µM [inhibitor, single point]
CCC(C)c1ccc(NC(=S)NCc2cccs2)cc1 (configuration not stated)	inconclusive: 21.3 µM [inhibitor, single point]
